# Screen size: about 220,000 compounds; about 5,700 (2.6%) were called active. The shares of active, inactive and inconclusive entries below differ from those in the screen. Calls come from the whole dose curve; as a rule, active = well fitted inhibition curve with a large enough effect; inconclusive = small, poorly fitted or top-dose-only effect; inactive = no such curve, though single readings can be large or run the other way. Where the call is inconclusive, the potency comes from a doubtful curve fit.
# Molecular target: Lysine-specific demethylase 5B (Homo sapiens) (UniProt Q9UGL1)
# UniProt Q9UGL1, sequence (Q9UGL1 whole entry, looked up): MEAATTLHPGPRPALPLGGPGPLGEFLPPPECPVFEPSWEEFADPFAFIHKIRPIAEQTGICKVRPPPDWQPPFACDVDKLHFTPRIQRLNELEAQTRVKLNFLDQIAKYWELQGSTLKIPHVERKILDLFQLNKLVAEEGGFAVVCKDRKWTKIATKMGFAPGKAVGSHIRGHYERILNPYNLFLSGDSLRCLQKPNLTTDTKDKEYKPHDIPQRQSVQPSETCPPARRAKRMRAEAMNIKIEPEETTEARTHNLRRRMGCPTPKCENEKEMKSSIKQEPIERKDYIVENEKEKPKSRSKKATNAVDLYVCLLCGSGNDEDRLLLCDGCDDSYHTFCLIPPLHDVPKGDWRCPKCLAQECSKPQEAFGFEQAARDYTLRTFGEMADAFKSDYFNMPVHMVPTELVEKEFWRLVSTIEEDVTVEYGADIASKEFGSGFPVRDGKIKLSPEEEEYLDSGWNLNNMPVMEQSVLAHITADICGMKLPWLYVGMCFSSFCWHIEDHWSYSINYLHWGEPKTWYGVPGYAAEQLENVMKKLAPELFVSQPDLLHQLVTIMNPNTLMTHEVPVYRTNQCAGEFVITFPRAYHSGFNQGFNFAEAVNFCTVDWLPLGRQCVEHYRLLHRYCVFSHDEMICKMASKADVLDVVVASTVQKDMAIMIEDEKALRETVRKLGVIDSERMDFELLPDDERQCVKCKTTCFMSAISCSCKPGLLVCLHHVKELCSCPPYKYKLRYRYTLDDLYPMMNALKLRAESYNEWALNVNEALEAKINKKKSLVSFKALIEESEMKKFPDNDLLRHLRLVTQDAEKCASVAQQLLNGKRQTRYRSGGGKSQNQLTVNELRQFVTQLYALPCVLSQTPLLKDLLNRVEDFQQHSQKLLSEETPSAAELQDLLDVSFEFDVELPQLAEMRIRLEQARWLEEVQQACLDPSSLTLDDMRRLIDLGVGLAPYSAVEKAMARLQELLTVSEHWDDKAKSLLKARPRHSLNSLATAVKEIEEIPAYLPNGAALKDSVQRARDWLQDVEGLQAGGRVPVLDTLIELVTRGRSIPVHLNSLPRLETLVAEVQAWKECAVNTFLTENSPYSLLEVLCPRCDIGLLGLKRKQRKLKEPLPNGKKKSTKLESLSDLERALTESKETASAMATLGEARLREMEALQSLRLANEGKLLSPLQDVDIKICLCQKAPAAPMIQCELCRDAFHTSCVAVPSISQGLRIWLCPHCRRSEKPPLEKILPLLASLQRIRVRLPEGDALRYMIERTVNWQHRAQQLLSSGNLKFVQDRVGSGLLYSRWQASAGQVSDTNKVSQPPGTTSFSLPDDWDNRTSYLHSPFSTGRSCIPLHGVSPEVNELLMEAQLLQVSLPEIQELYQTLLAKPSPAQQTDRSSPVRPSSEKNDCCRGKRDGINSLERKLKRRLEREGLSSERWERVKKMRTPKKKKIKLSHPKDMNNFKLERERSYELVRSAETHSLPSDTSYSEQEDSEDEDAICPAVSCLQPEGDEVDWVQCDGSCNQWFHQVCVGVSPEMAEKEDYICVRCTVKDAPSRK
# Assay: Primary screen for KDM5B Histone Demethylases FDH-coupled qHTS; note: nearly all actives have a fitted effect of over 70% in size; for activity change, negative = inhibition: 0% is about no effect
# Conditions: FDH-coupled NADH fluorescence (FDH is formaldehyde dehydrogenase); activity change, negative = inhibition: at 57.7 µM (top of the series) unless noted
# Summary of the method: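 Compound dilutions met 200 nM (final) KDM5BΔAP for 10 min at room temperature before substrate addition. The substrate mix held 12.5 µM H3K4me3 with cofactors 25 µM α-ketoglutarate and 50 µM Fe²⁺. NADH signal gain over 30 min defined activity.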
# Potency is the fitted concentration of half-maximal effect; tags give direction and shape of the fitted curve.
Structure (SMILES),Potency,"activity change, negative = inhibition"
N#Cc1cccc(NC(=O)N2CCc3nc4cc[nH]n4c(=O)c3C2)c1,"inconclusive: 17.8 µM [inhibitor, partial curve, poor fit]",
CCCCOc1ccccc1C(=O)Nc1ccc(OCC)c2ncccc12,"inconclusive: 39.8 µM [inhibitor, single point]",
COC(=O)C1=C(C)Nc2nc3ccccc3n2C1c1ccc(O)c(OC)c1 (stereo unspecified),,inactive: 13.4%
CC(=O)N(c1nc(CSc2nnc(C3CC3)n2C2CC2)cs1)c1ccc(C)cc1C,,inactive: 8.49%
CCOc1ccc(NC(=O)Cn2c(=O)n(-c3ccccc3)c(=O)c3ccc(C(=O)NCc4ccc5c(c4)OCO5)cc32)cc1,"inconclusive: 14.1 µM [inhibitor, partial curve, poor fit]",
C=CCOC(Cn1ccnc1)c1ccc(Cl)cc1Cl (stereo unspecified),"inconclusive: 28.2 µM [inhibitor, single point]",
CCOCCCNc1nc2c(c(=O)[nH]c(=O)n2C)n1CCOCC,,inactive: 13.3%
Cc1noc(C)c1-c1cc(-c2cccc(CO)c2)cn2cncc12,active: 35.5 µM,
CN(C)c1ccc(C(=O)NC2CCCN(c3cc(-c4ccccc4)[nH]n3)C2)cc1 (stereo unspecified),,inactive: -16.8%
COc1ccc(-c2ccnc(N[C@H]3CO[C@H]4[C@@H]3OC[C@@H]4NC(=O)CCC(=O)O)n2)cc1,"inconclusive: 35.5 µM [inhibitor, single point]",
O=[N+]([O-])c1ccc(CN2C[C@H](O)C[C@H]2c2nc(-c3ccc(C(F)(F)F)cc3)no2)cc1,"inconclusive: 35.5 µM [inhibitor, partial curve, poor fit]",
CC(=O)c1ccc(NC(=O)c2cc3sccc3n2Cc2ccc(F)cc2)cc1,"inconclusive: 28.2 µM [inhibitor, partial curve, poor fit]",
N#Cc1ccccc1COC(=O)C1(c2ccccc2)CC1,,inactive: -6.36%
CCCC1CCC(=NNC(=S)NCc2ccccc2)CC1 (stereo unspecified),,inactive: 15.4%
CNC(=O)Nc1ccc(C)n(CC(=O)NCc2cccc(OC)c2)c1=O,"inconclusive: 31.6 µM [inhibitor, single point]",
Cc1ccc(C(=O)NC2=NC(c3ccc(C)cc3)CC(=O)N2)cc1 (stereo unspecified),,inactive: -13.3%
CC(C)CC(=O)NCC1CC2c3ccccc3C1c1ccccc12 (stereo unspecified),,inactive: 21.7%
CCN1CCN(CC(O)COc2cccc(CNC3(c4ccccc4)CC3)c2)CC1 (stereo unspecified),,inactive: -8.47%
CC(=O)N1C[C@@H]2CCCN3CCC[C@@H]([C@H]23)[C@H]1CCCC(=O)N(C)Cc1ccc(N2CCOCC2)cc1,"inconclusive: 39.8 µM [inhibitor, partial curve, poor fit]",
COc1ccc(NC(=O)c2cc3c(OC)cc(OC)c(OC)c3[nH]2)cc1,"inconclusive: 22.4 µM [inhibitor, single point]",
COc1ccc(-c2nn(-c3ccccc3C)cc2CNC(C)c2cn(C)nc2C)cc1F (stereo unspecified),,inactive: 20.3%
O=C(Cn1ccn2nc(-c3ccccc3)c(CO)c2c1=O)Nc1ccc2c(c1)OCO2,,inactive: 11.2%

Structure (SMILES),Potency,"activity change, negative = inhibition"
CCOc1cccc(-c2nnc3n2N=C(c2ccc4c(c2)OCO4)CS3)c1,,inactive: 19.2%
CC(C)(C)OC(=O)N1CCC(c2nnc(SCc3cccc(Cl)c3)o2)CC1,"inconclusive: 1.41 µM [inhibitor, partial curve, poor fit]",
CCc1ccccc1OCC(=O)c1ccc2c(c1)N(CC(=O)Nc1ccc(F)cc1)C(=O)CO2,"inconclusive: 28.2 µM [inhibitor, single point]",
COc1ccc2oc(=O)cc(CN(C)Cc3ccc(C)cc3)c2c1,"inconclusive: 35.5 µM [inhibitor, single point]",
COc1ccc(NC(=O)CSc2ccc3nc(-c4ccccc4)cn3n2)cc1OC,"inconclusive: 12.6 µM [inhibitor, partial curve, poor fit]",
N#CCCN1CCN(C(=O)CCc2cc3ccccc3[nH]c2=O)CC1,"inconclusive: 22.4 µM [inhibitor, partial curve, poor fit]",
Cc1cccc(CC(=O)NC2CCN(c3cc(-c4cccs4)[nH]n3)C2)c1 (stereo unspecified),"inconclusive: 12.6 µM [inhibitor, partial curve, poor fit]",
Cc1ccccc1Nc1c(-c2ccc(N3CCOCC3)cc2)nc2ccccn12,"inconclusive: 31.6 µM [inhibitor, partial curve, poor fit]",
COc1ccccc1CNC(=O)CCC1N=C2c3ccccc3N=C(SCc3ccc(C)cc3C)N2C1=O (stereo unspecified),"inconclusive: 35.5 µM [inhibitor, partial curve, poor fit]",
CC(C)(C)NC(NC(=O)c1ccccc1Cl)C(Cl)(Cl)Cl (stereo unspecified),,inactive: 10.2%
CSCc1ccc(C(=O)NCc2ccco2)cc1,,inactive: -20.2%
COc1ccc(NC(=O)CN(c2cc(C)cc(C)c2)S(=O)(=O)c2c(C)noc2C)cc1Cl,"inconclusive: 1.78 µM [inhibitor, full curve, poor fit]",
CCCc1ccc2oc(C(=O)NCCc3nncn3CC)c(C)c2c1,"inconclusive: 25.1 µM [inhibitor, partial curve, poor fit]",
CN(c1cc(=O)c2ccnc(NCc3ccc4c(c3)OCO4)c2o1)C1CCOCC1,"inconclusive: 28.2 µM [inhibitor, partial curve]",
Cc1ccc2nc3sc(C(=O)NCCCN(C)c4ccccc4)cc3cc2c1,,inconclusive: -32% [inhibitor]
CCCNC(=O)CCC(=O)NC(C)c1cccc(Cl)c1 (stereo unspecified),,inactive: 2.15%
CCc1cc(=O)oc2c(C)c(OCC(=O)NCc3ccncc3)ccc12,"inconclusive: 17.8 µM [inhibitor, partial curve, poor fit]",
O=S(=O)(Cc1cccc(F)c1)c1ccc2ccccc2c1,,inactive: 11.3%
CCOC(=O)c1cc(S(=O)(=O)NCc2ccc(C)cc2)[nH]n1,,inconclusive: -36.3% [inhibitor]
O=C(CSc1ccccc1C(=O)Nc1ccc2[nH]c(=O)[nH]c2c1)NCc1ccco1,"inconclusive: 31.6 µM [inhibitor, single point]",
CCOc1ccc(CCNC(=O)c2ccc3c(c2)c(C)c(C)n3Cc2ccccc2)cc1OCC,"inconclusive: 20 µM [inhibitor, partial curve, poor fit]",
COc1ccccc1CCNC(=O)c1sc(NCc2ccccc2)nc1C,,inactive: 15.2%

Structure (SMILES),Potency,"activity change, negative = inhibition"
O=C(O)CNS(=O)(=O)c1cc(C(F)(F)F)ccc1Cl,,inactive: 5.41%
COc1ccc(CC(=O)Nc2ccc3n(c2=O)C[C@H]2C[C@@H]3CN(C(=O)c3ccc4ccccc4c3)C2)cc1,"inconclusive: 14.1 µM [inhibitor, partial curve]",
COc1cc(OC)cc(-c2nn(-c3ccc(C)cc3C)c(OC(C)=O)c2-c2ccc(NC(C)=O)cc2)c1,"inconclusive: 28.2 µM [inhibitor, partial curve, poor fit]",
Cc1nn(CC(=O)O)c(=O)c2nc(-c3ccccc3)sc12,active: 31.6 µM,
COc1cc(-c2ccc(C)cc2)nc2ccc(C(=O)NCC(C)O)cc12 (stereo unspecified),"inconclusive: 28.2 µM [inhibitor, single point]",
CCc1ccc2c(CN(C)Cc3ccccc3OC)cc(=O)oc2c1,"inconclusive: 17.8 µM [inhibitor, partial curve, poor fit]",
COC(=O)c1sc2ccccc2c1S(=O)(=O)Nc1cc(OC)c(OC)c(OC)c1,,inactive: -10.7%
O=C(N[C@@H]1CN(c2ncccn2)C[C@H]1CO)C1CC=CC1,"inconclusive: 39.8 µM [inhibitor, partial curve, poor fit]",
Cc1ccc2c(CC(=O)Nc3c(C(=O)c4ccc(C)c(F)c4)oc4ccccc34)coc2c1,,inconclusive: -31% [inhibitor]
COc1cccc(Nc2ncc(-c3cccnc3)c3c2OCC3)c1,active: 31.6 µM,
Cc1nc(Cl)c(N=Cc2cccc([N+](=O)[O-])c2)c(Cl)n1,"inconclusive: 22.4 µM [inhibitor, partial curve, poor fit]",
Cc1ccsc1C=Nc1ccc(-c2ccc(N=Cc3sccc3C)cc2)cc1,"inconclusive: 35.5 µM [inhibitor, partial curve, poor fit]",
Cc1ccc2nc(C(=O)N3CCCC3c3cc(C(C)C)on3)cn2c1 (stereo unspecified),"inconclusive: 25.1 µM [inhibitor, partial curve, poor fit]",
Cc1ccc(SCC(=O)Nc2ccc3oc(-c4ccccc4C)nc3c2)cc1,"inconclusive: 28.2 µM [inhibitor, partial curve, poor fit]",
CCc1ccc(CNC(=O)c2cc3n(n2)CC(c2ccc(Cl)cc2)OC3)cc1 (stereo unspecified),"inconclusive: 22.4 µM [inhibitor, single point]",
Cc1ccc(CN2C(=O)[C@@H]3C[C@@H](O)CN3C3(CN(C4Cc5ccccc5C4)C3)C2=O)o1,"inconclusive: 39.8 µM [inhibitor, partial curve]",
O=C(c1cc(=O)c2cc(Cl)cc(Cl)c2o1)N1CCN(Cc2ccccc2)CC1,,inactive: 1.45%
COc1cc(OC)cc(C(=O)Nc2cc3c(cc2N2CCCC2)n(C)c(=O)c(=O)n3C)c1,"inconclusive: 35.5 µM [inhibitor, partial curve, poor fit]",
CNc1ccc(-c2noc([C@@H]3CCCN3Cc3ccccn3)n2)cn1,"inconclusive: 25.1 µM [inhibitor, partial curve]",
CC(C)n1nnnc1SCC(=O)N1N=C(c2cc3ccccc3o2)CC1c1ccco1 (stereo unspecified),"inconclusive: 39.8 µM [inhibitor, single point]",
CSc1ccc(CCNC(=O)CCn2c(=O)c3cccn3c3ccc(F)cc32)cc1,"inconclusive: 15.8 µM [inhibitor, partial curve, poor fit]",
CN1CCN(c2ccccc2NC(=O)c2cccs2)CC1,"inconclusive: 25.1 µM [inhibitor, single point]",
